PubChem BioAssay (NCI)
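1) Cells in 96-well plates. 2) Compound, 48 h, 5 concentrations. 3) Linear interpolation between surrounding doses. 4) Unreached endpoint = highest concentration. Abbreviation: GI50, concentration required for 50% inhibition of growth.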 For part of its entries the source gives two or more results. This is not the full list of results. There may be further records. For some of these results: The tests behind the records often covered other concentration ranges, which the source does not state; some values may only mark the edge of a range. For some of these results: Values given together repeat one measurement (runs, samples, wells, individuals or studies). Records carry a tag for their origin. The letters are not those of the source and start again with each entry.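 Definition used: TGI = concentration required for complete inhibition of growth.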

Assays:
Test in all cases: NCI-60 cell line screen, 48 h
[1] = tested on: A498 renal
[2] = tested on: HT29 colon
[3] = tested on: UACC-257 melanoma
[4] = tested on: DU-145 prostate
[5] = tested on: OVCAR-3 ovarian
[6] = tested on: ACHN renal
[7] = tested on: TK-10 renal
[8] = tested on: MOLT-4 leukemia
[9] = tested on: NCI/ADR-RES ovarian
[10] = tested on: MDA-N
[11] = tested on: KM20L2 colon
[12] = tested on: MDA-MB-435
[13] = tested on: CCRF-CEM leukemia
[14] = tested on: K-562 leukemia

With `CN(C)c1ccc(C(=N)c2ccc(N(C)C)cc2)cc1` the GI50 [1] was 1.51 µM [sample A, 1 test] and 132 nM [sample B, 1 test].

In the case of `COc1cccc2c1C(=O)c1c(O)c3c(c(O)c1C2=O)C[C@@](O)(C(=O)CN1CCOCC1)C[C@@H]3OC1CC(N)C(O)C(C)O1` (stereo partly specified), the TGI [2] is reported as 0.894 nM and 40 µM and the TGI [3] is reported as 0.918 nM and 29.3 µM.

`CC(=O)O[C@@]12CO[C@@H]1C[C@H](O)[C@@]1(C)C(=O)[C@H](O)C3=C(C)[C@@H](OC(=O)[C@H](O)[C@@H](NC(=O)OC(C)(C)C)c4ccccc4)C[C@@](O)([C@@H](OC(=O)c4ccccc4)C12)C3(C)C` (stereo partly specified) was tested, and the TGI [4] was 6.57 nM and > 100 µM, the TGI [5] was 5.54 nM and 11.5 µM and the GI50 [6] was 49.9 nM and 11.2 µM. The GI50 [7] was 10.8 nM and 14 µM and the GI50 [1] was < 5 nM and 416 nM.

In the case of `COC1CC(C)C(OC)c2cc(O)cc(c2O)NC(=O)/C(C)=C/C=C\C(C)C(OC(N)=O)/C(C)=C\C(C)C1OC` (stereo unspecified), the TGI [8] is reported as 272 nM, 1.59 µM, 15.4 µM, the GI50 [9] is reported as 16.1 µM and > 500 µM and the TGI [9] is reported as 30.9 µM and > 500 µM. For the same compound, the GI50 [10] was 635 nM and 56.9 nM, the TGI [11] was 3.04 µM and 74 µM and the GI50 [12] was 83.6 nM and 18.2 µM. The TGI [13] was 297 nM, 1.63 µM, 5.91 µM and the TGI [14] was 198 nM [1 test] and 3.83 µM, 11.5 µM [mean of 3 tests].
